# From PubChem BioAssay AID504332 (National Center for Advancing Translational Sciences (NCATS), 2011)
# Hit rate of the full screen: of about 350,000 compounds, about 31,000 (8.9%) were called active. Inconclusive results, whose numbers are uncertain, are shown with a selection of clear calls. Calls come from the whole dose curve; as a rule, active = well fitted inhibition curve with a large enough effect; inconclusive = small, poorly fitted or top-dose-only effect; inactive = no such curve, though single readings can be large or run the other way. Potencies of inconclusive entries are doubtful fits and often do not repeat.
# Molecular target: Histone-lysine N-methyltransferase EHMT2 (Homo sapiens) (UniProt Q96KQ7)
# Assay: qHTS Assay for Inhibitors of Histone Lysine Methyltransferase G9a; note: nearly all actives have a fitted effect of over 75% in size
# Conditions: G9a H3K9 monomethylation, AlphaScreen, 2 h; activity, negative = inhibition: at 59 µM (top of the series) unless noted
# Summary of the method: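 Readings reflect AlphaScreen signal from monomethyl-H3K9 antibody detection. HMT at 20 nM; substrate b-H3K9 500 nM; cofactor SAM 20 uM; 2 h RT reaction; compounds tested as titrations in qHTS with 15 min preincubation.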
# % is set by controls: 0 for no effect and ±100 for the full control effect; potency is the fitted concentration of half-maximal effect; tags give direction and shape of the fitted curve.
# Chain of UniProt Q96KQ7 (Q96KQ7 whole entry, looked up): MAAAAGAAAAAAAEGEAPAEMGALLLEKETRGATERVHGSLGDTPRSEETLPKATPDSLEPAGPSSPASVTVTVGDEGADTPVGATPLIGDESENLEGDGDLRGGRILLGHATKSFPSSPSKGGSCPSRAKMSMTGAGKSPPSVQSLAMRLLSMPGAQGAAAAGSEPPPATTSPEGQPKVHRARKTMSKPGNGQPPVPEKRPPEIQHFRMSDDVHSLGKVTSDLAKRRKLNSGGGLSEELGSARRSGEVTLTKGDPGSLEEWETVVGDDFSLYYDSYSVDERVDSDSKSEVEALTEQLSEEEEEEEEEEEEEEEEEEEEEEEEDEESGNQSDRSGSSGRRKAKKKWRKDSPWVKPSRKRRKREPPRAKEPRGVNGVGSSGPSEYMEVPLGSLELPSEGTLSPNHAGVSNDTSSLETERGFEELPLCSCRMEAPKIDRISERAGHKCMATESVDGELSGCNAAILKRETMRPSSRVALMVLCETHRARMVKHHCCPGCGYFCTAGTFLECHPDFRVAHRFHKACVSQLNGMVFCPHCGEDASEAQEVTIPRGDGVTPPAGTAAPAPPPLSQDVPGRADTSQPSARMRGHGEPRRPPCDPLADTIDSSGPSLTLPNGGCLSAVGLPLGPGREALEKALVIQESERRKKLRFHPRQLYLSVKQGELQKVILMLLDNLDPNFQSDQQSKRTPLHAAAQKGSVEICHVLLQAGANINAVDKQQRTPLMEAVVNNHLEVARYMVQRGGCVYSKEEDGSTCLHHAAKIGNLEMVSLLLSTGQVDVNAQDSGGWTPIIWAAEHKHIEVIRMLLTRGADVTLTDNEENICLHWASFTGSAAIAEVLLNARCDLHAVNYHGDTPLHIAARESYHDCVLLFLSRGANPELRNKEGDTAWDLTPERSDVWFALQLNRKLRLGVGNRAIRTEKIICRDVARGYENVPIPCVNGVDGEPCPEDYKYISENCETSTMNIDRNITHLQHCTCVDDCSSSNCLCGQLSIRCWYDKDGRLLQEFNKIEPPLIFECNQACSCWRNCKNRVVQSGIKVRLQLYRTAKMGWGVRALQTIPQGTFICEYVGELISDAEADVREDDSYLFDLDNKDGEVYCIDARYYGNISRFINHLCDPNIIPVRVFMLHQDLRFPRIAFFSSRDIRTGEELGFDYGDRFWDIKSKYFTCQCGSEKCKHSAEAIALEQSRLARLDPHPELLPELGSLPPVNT
SMILES,"activity, negative = inhibition",Potency
Cc1ccc(NC(=O)CN2C(=O)c3ccccc3Sc3ccc(C(=O)N4CCOCC4)cc32)cc1C,inactive: -3.17%,
Cc1nn(Cc2ccc(Cl)cc2)c(C)c1NC(=O)CSc1nc2c(c(C(F)(F)F)n1)CCc1ccccc1-2,inactive: 15% [at 0.501 µM],
Cc1ccc(CNC(=O)Cn2ccn(-c3ccc(F)c(F)c3)c(=O)c2=O)cc1,inactive: -34.3%,
CN(C)CCCNC(=O)C1CCNCC1,inconclusive: -66.6% [inhibitor],
Cc1ccccc1OCc1n[nH]c(=S)n1-c1cccc(Cl)c1,,active: 11.2 µM
COCCCn1cc(C(=O)c2cc(Br)ccc2O)cc(C#N)c1=O,inactive: 1.94%,
CN1C=CC=C/C1=C1\SC(=S)N(Cc2ccccc2)C1=O,,active: 20 µM
CC(C)CN(C(=O)C1CCCCC1)C1CCS(=O)(=O)C1 (stereo unspecified),,"inconclusive: 89.1 µM [inhibitor, partial curve, poor fit]"
CC(OC(=O)CCC(=O)c1ccccc1)C(=O)Nc1ccc(F)cc1 (stereo unspecified),inactive: -46%,
COc1cc2c(cc1OC)C(C)N(C(=O)c1cc3ccccc3o1)CC2 (stereo unspecified),inactive: -7.3% [at 102 µM],
Oc1c(C(c2ccc(Cl)cc2Cl)N2CCN(Cc3ccccc3)CC2)sc2nc(-c3ccco3)nn12 (stereo unspecified),,active: 12.6 µM
CSc1ccccc1NC(=O)COC(=O)CCCOc1ccc(C)cc1,inactive: 61.2% [at 102 µM],
COc1ccc2nc(C)cc(N/N=C/c3ccc(F)cc3)c2c1,,"inconclusive: 89.1 µM [inhibitor, single point]"
CN(C)c1ccc(-c2nc3cnccn3c2Nc2ccc3c(c2)OCCO3)cc1,,"inconclusive: 15.8 µM [inhibitor, full curve, poor fit]"
Cc1cccc(NC(=O)C2C3C=CC4(O3)C2C(=O)N(CCCN2CCCC2)C4C(=O)NC2CCCC(C)C2C)c1 (stereo unspecified),,"inconclusive: 89.1 µM [inhibitor, single point]"
CCOC(=O)c1oc2ccccc2c1COC(=O)CNC(=O)c1ccc(C)cc1,inactive: 19.5% [at 12.7 µM],
CCOCCCNC(=O)C(c1ccc(Cl)cc1)N(Cc1ccc2c(c1)OCO2)C(=O)c1ccc(NC(C)=O)cc1 (stereo unspecified),inactive: -12%,
O=C(NNc1ccccc1F)C1CCC1,,active: 50.1 µM
CCc1ccc(S(=O)(=O)Nc2ccc(C)c(NS(C)(=O)=O)c2)cc1,inactive: -16.3% [at 102 µM],
Cc1nc(NC(=O)c2ccco2)sc1C(=O)O,inactive: 12.3%,
COC(=O)c1c2c(nc3ccccc13)CCC2,,"inconclusive: 100 µM [inhibitor, single point]"
COc1cc2ncc(S(=O)(=O)c3ccccc3)c(N3CCC4(CC3)OCCO4)c2cc1OC,,"inconclusive: 79.4 µM [inhibitor, single point]"
Cc1ccc(S(=O)(=O)Nc2ccccc2N2CCOCC2)cc1,inactive: 42.1% [at 102 µM],
COc1cc(C(=O)NCCNc2nc3cc(C)ccc3cc2C#N)cc(OC)c1OC,inactive: 12.1% [at 102 µM],
O=C(NCCc1ccccc1)c1ccc2c(c1)CCN2S(=O)(=O)c1ccc(Cl)cc1,inactive: -26.7%,
S=C(NCc1ccccc1)NNc1nc2ccccc2[nH]1,,active: 2.82 µM

SMILES,"activity, negative = inhibition",Potency
N#Cc1c(Cl)c(Cl)c2nnc(-c3ccc(Br)cc3)n2c1Cl,,active: 12.6 µM
O=C(NCC1CCCO1)c1ccc(NS(=O)(=O)c2cccc([N+](=O)[O-])c2)cc1 (stereo unspecified),,"inconclusive: 44.7 µM [inhibitor, partial curve, poor fit]"
Cc1ccc(SC(CC(=O)c2ccc(F)cc2)C(=O)O)cc1 (stereo unspecified),,"inconclusive: 44.7 µM [inhibitor, partial curve]"
CCOc1cc2[nH]c(=O)n(CCCCC(=O)NCc3ccco3)c(=O)c2cc1OCC,inactive: -6.66%,
COc1ccc(C(=O)OCc2ccccc2F)cc1S(=O)(=O)N1CCCC1,inactive: 17.9%,
Cn1c(N/N=C/c2cccs2)cc(=O)n(C)c1=O,,active: 50.1 µM
Cc1oc2ncnc(N3CCOCC3)c2c1C(=O)Nc1ccc(Br)cc1F,inactive: 13.3%,
Fc1cccc(/C=N/NC(=S)Nc2ccccc2Cl)c1,inactive: 25%,
Cc1ccc(S(=O)(=O)Oc2ccccc2/C=N/NC(=O)c2c(Cl)cnn2C)cc1,inactive: 25.1%,
CC(C)CCNC(=O)C1CCC(CNS(=O)(=O)c2cccc3nsnc23)CC1 (stereo unspecified),inactive: -0.449%,
CC(C)(C)c1ccc(C(=O)Nn2cnnc2)cc1,inactive: -6.39% [at 102 µM],
COCCNC(=O)CSc1nc(-c2ccc(C)cc2)[nH]c1-c1ccc(OC)cc1,inactive: -20.3%,
COc1cc(C=C2C(=O)OC(C)(C)OC2=O)ccc1OCC(=O)Nc1ccccc1,,"inconclusive: 50.1 µM [inhibitor, partial curve]"
O=C(NNC(=O)c1ccc(NC(=O)c2ccccc2)cc1)Nc1ccccc1,,"inconclusive: 44.7 µM [inhibitor, partial curve, poor fit]"
O=C(CSc1nc(=O)n(Cc2ccccn2)c2c1CCC2)Nc1cccc(Cl)c1,inactive: 4.54%,
CC1CCCCC12NC(=O)N(CC(=O)N1CCN(S(=O)(=O)c3cccs3)CC1)C2=O (stereo unspecified),,"inconclusive: 89.1 µM [inhibitor, single point]"
COc1ccc(C(=O)c2sc3nc(-c4ccccc4)ccc3c2N)cc1,,"inconclusive: 70.8 µM [inhibitor, partial curve, poor fit]"
CC(C)OC(=O)c1cc(C(=O)c2cc(Br)ccc2O)coc1=N,,"inconclusive: 28.2 µM [inhibitor, partial curve, poor fit]"
O=C(NNC(=O)c1ccc(F)cc1F)c1ccc2c(c1)OCO2,inactive: -8.64% [at 102 µM],
O=C(O)c1cc(S(=O)(=O)O)ccc1O,,"inconclusive: 12.6 µM [inhibitor, partial curve, poor fit]"
CCOc1ccc(S(=O)(=O)n2nc(C)cc2C)c2ccccc12,,"inconclusive: 8.91 µM [inhibitor, partial curve]"
COc1cc(OC)cc(OC(=O)c2ccc3c(=O)n4c(nc3c2)CCC4)c1,,"inconclusive: 79.4 µM [inhibitor, partial curve, poor fit]"
COc1ccc(Cl)cc1NC(=O)CSc1nc(=O)[nH]c2c1CCC2,inactive: 8.26%,
CCC(=O)c1ccccc1OCCN1CCN(CC)CC1,,active: 14.1 µM
O=C(CSc1ncccn1)c1ccccc1Br,,"inconclusive: 3.98 µM [inhibitor, single point]"
